Measurements from the supplement of paper PMC9174493.
The list shows a part of the results. Single values of this set are uncertain. Values with irradiation are relative to irradiated vehicle.

test system: A549-Dual; experiment: ISRE reporter (Lucia luciferase) activity, viability-corrected, relative to vehicle (fold change vs vehicle); higher = more activation of STING-IRF / NF-kB immune response reporter; details: 1 µM; irradiation: none

**Q.** How did the ISRE reporter turn out when `OCC1OC(Oc2cc(O)cc(/C=C/c3ccc(O)cc3)c2)C(O)C(O)C1O` (stereo not drawn) [Polydatin] was run?
**A.** 1.29

**Q.** How did the ISRE reporter turn out when `COc1cc(N2CCC(N3CCN(C)CC3)CC2)ccc1Nc1ncc(Cl)c(Nc2ccccc2P(C)(C)=O)n1` was run?
**A.** 1.04

**Q.** How did the ISRE reporter turn out when `Cc1cccn2c(=O)c(-c3nnn[n-]3)cnc12.[K+]` [Pemirolast potassium] was run?
**A.** 0.815

**Q.** How did the ISRE reporter turn out when `Cc1cccc(N(C)C(=S)Oc2ccc3ccccc3c2)c1` [Tolnaftate] was run?
**A.** 0.904

same assay, conditions: 3 µM; irradiation: 8 Gy/4 fr

**Q.** With `C=CC(=O)Nc1cc(Nc2nccc(-c3cn(C)c4ccccc34)n2)c(OC)cc1N(C)CCN(C)C` [Osimertinib (AZD9291)] as the molecule, how does the ISRE reporter read?
**A.** 1.18

**Q.** `CC1CC2C3CCC4=CC(=O)C=CC4(C)C3(F)C(O)CC2(C)C1(O)C(=O)COP(=O)([O-])[O-].[Na+].[Na+]` (stereo not drawn) [Dexamethasone Sodium Phosphate] was tested. Which ISRE reporter did it give?
**A.** 0.059

**Q.** With `O=C(O)CCCN1CCC(OC(c2ccc(Cl)cc2)c2ccccn2)CC1.O=S(=O)(O)c1ccccc1` (stereo not drawn) [Bepotastine Besilate] as the molecule, how does the ISRE reporter read?
**A.** 1.3

**Q.** With `CC(=O)OC(C)C(C)C(=O)OCC12C3CC4(C)C(=CCC5C6(C)CCC(OC7OC(C(=O)[O][Na])C(OC8OC(CO)C(O)C(O)C8O)C(O)C7OC7OCC(O)C(O)C7O)C(C)(CO)C6CCC54C)C1CC(C)(C)C(O3)C2O` (stereo not drawn) [Sodium Aescinate] as the molecule, how does the ISRE reporter read?
**A.** 1.12

**Q.** For `Nc1nc(CC(=O)Nc2ccc(CCNCC(O)c3ccccc3)cc2)cs1` (stereo not drawn) [Mirabegron], which ISRE reporter is on record?
**A.** 1.04

**Q.** How did the ISRE reporter turn out when `O=C1OC(OC(=O)c2cccnc2Nc2cccc(C(F)(F)F)c2)c2ccccc21` (stereo not drawn) [Talniflumate] was run?
**A.** 0.729

**Q.** `CN1C(C(=O)Nc2ccccn2)=C(O)c2sccc2S1(=O)=O` [Tenoxicam] was tested. Which ISRE reporter did it give?
**A.** 0.98

**Q.** `CCC(=O)NS(=O)(=O)c1ccc(-c2c(-c3ccccc3)noc2C)cc1` [Parecoxib] was tested. Which ISRE reporter did it give?
**A.** 0.853

**Q.** How did the ISRE reporter turn out when `CNCC(O)C(O)C(O)C(O)CO.Cc1c(Nc2ncccc2C(=O)O)cccc1C(F)(F)F` [Flunixin Meglumin] was run?
**A.** 0.843

**Q.** `Cc1cncc(CN2CCC(=C3c4ccc(Cl)cc4CCc4cccnc43)CC2)c1.O=C(O)/C=C/C(=O)O` [Rupatadine Fumarate] was tested. Which ISRE reporter did it give?
**A.** 0.516

**Q.** For `COC(=O)CC(O)(CCCC(C)(C)O)C(=O)OC1C(OC)=CC23CCCN2CCc2cc4c(cc2C13)OCO4` (stereo not drawn) [Homoharringtonine], which ISRE reporter is on record?
**A.** 0.0687

**Q.** Which ISRE reporter does the source give for `CC(C(=O)[O-])c1ccc(CC2CCCC2=O)cc1.[Na+]` (stereo not drawn) [Loxoprofen Sodium] here?
**A.** 0.754

**Q.** `C=C1c2cccc(O)c2C(=O)C2=C(O)C3(O)C(=O)C(C(N)=O)=C(O)C(N(C)C)C3C(O)C12.Cl` (stereo not drawn) [Methacycline HCl] was tested. Which ISRE reporter did it give?
**A.** 0.596

**Q.** How did the ISRE reporter turn out when `CC1CCC2(C(=O)OC3OC(COC4OC(CO)C(OC5OC(C)C(O)C(O)C5O)C(O)C4O)C(O)C(O)C3O)CCC3(C)C(=CCC4C5(C)CC(O)C(O)C(C)(CO)C5CCC43C)C2C1C` (stereo not drawn) [Asiaticoside] was run?
**A.** 0.911

**Q.** Which ISRE reporter does the source give for `Nc1nc(F)nc2c1ncn2C1OC(CO)C(O)C1O` (stereo not drawn) [Fludarabine] here?
**A.** 0.921

**Q.** With `O=NN(CCCl)C(=O)NC1CCCCC1` [Lomustine] as the molecule, how does the ISRE reporter read?
**A.** 0.868

**Q.** Which ISRE reporter does the source give for `O=CC(O)C(O)C(O)C(O)COC1OC(CO)C(O)C(O)C1O` (stereo not drawn) [Melibiose] here?
**A.** 1.11

**Q.** With `O.S=c1nc[nH]c2nc[nH]c12` [6-Mercaptopurine (6-MP) Monohydrate] as the molecule, how does the ISRE reporter read?
**A.** 0.74

**Q.** How did the ISRE reporter turn out when `CC(C(=O)O)c1cccc(C(=O)c2ccccc2)c1` (stereo not drawn) [Ketoprofen] was run?
**A.** 0.932

**Q.** With `CNC1CCC(c2ccc(Cl)c(Cl)c2)c2ccccc21.Cl` (stereo not drawn) [Sertraline HCl] as the molecule, how does the ISRE reporter read?
**A.** 1.01

**Q.** Which ISRE reporter does the source give for `CC1(C)OC2CC3C4CCC5=CC(=O)CCC5(C)C4(F)C(O)CC3(C)C2(C(=O)CCl)O1` (stereo not drawn) [Halcinonide] here?
**A.** 0.0597

**Q.** With `CC(=O)OC12COC1CC(O)C1(C)C(=O)C(O)C3=C(C)C(OC(=O)C(O)C(NC(=O)OC(C)(C)C)c4ccccc4)CC(O)(C(OC(=O)c4ccccc4)C21)C3(C)C` (stereo not drawn) [Docetaxel] as the molecule, how does the ISRE reporter read?
**A.** 1.2

**Q.** Which ISRE reporter does the source give for `CCN(CC)Cc1cc(Nc2ccnc3cc(Cl)ccc23)ccc1O.Cl.Cl` [Amodiaquine hydrochloride] here?
**A.** 0.877

**Q.** Which ISRE reporter does the source give for `Cc1c(N)c(=O)n(-c2ccccc2)n1C` [4-Aminoantipyrine] here?
**A.** 0.778

**Q.** Which ISRE reporter does the source give for `Cn1cnc2c(F)c(Nc3ccc(Br)cc3F)c(C(=O)NOCCO)cc21` here?
**A.** 0.366

**Q.** How did the ISRE reporter turn out when `CC1(C)C2CCC1(C)C(O)C2` (stereo not drawn) [Borneol] was run?
**A.** 1.12

**Q.** Which ISRE reporter does the source give for `CC1CC2C3CCC4=CC(=O)C=CC4(C)C3(Cl)C(O)CC2(C)C1(OC(=O)c1ccco1)C(=O)CCl` (stereo not drawn) [Mometasone furoate] here?
**A.** 0.0427

**Q.** How did the ISRE reporter turn out when `CCN(CC)CCCC(C)Nc1ccnc2cc(Cl)ccc12.O=P(O)(O)O.O=P(O)(O)O` (stereo not drawn) [Chloroquine Phosphate] was run?
**A.** 0.907

**Q.** How did the ISRE reporter turn out when `COc1cc2c(cc1Cc1cccc(Cl)c1F)c(=O)c(C(=O)O)cn2C(CO)C(C)C` (stereo not drawn) [Elvitegravir (GS-9137, JTK-303)] was run?
**A.** 0.901

**Q.** `O=c1[nH]c(=O)n(C2CC(O)C(CO)O2)cc1F` (stereo not drawn) [Floxuridine] was tested. Which ISRE reporter did it give?
**A.** 0.642

**Q.** How did the ISRE reporter turn out when `CC1(C)CCC(CN2CCN(c3ccc(C(=O)NS(=O)(=O)c4ccc(NCC5CCOCC5)c([N+](=O)[O-])c4)c(Oc4cnc5[nH]ccc5c4)c3)CC2)=C(c2ccc(Cl)cc2)C1` [Venetoclax (ABT-199, GDC-0199)] was run?
**A.** 0.307

**Q.** For `Cc1ccc(NC(=O)c2ccc(CN3CCN(C)CC3)cc2)cc1Nc1nc(-c2cccnc2)cs1` [Masitinib (AB1010)], which ISRE reporter is on record?
**A.** 0.832

**Q.** `CCc1cc(/C(C)=N/OCc2ccc(C3CCCCC3)c(C(F)(F)F)c2)ccc1CN1CC(C(=O)O)C1` [BAF312 (Siponimod)] was tested. Which ISRE reporter did it give?
**A.** 0.754

**Q.** For `CN(C)C(=O)COC(=O)Cc1ccc(OC(=O)c2ccc(NC(=N)N)cc2)cc1.CS(=O)(=O)O` [Camostat Mesilate], which ISRE reporter is on record?
**A.** 0.853

**Q.** `Nc1nc(=S)c2[nH]cnc2[nH]1` [Thioguanine] was tested. Which ISRE reporter did it give?
**A.** 0.523

**Q.** For `OCC1OC(Oc2cc(O)cc(/C=C/c3ccc(O)cc3)c2)C(O)C(O)C1O` (stereo not drawn) [Polydatin], which ISRE reporter is on record?
**A.** 1.09

**Q.** With `COc1cc(N2CCC(N3CCN(C)CC3)CC2)ccc1Nc1ncc(Cl)c(Nc2ccccc2P(C)(C)=O)n1` as the molecule, how does the ISRE reporter read?
**A.** 0.994

**Q.** With `Cc1cccn2c(=O)c(-c3nnn[n-]3)cnc12.[K+]` [Pemirolast potassium] as the molecule, how does the ISRE reporter read?
**A.** 1.04

**Q.** Which ISRE reporter does the source give for `Cc1cccc(N(C)C(=S)Oc2ccc3ccccc3c2)c1` [Tolnaftate] here?
**A.** 0.895
